Measurements taken from PubChem BioAssay (NCATS).
Where “and” joins values, the source holds several entries; their conditions need not be identical. Equal values may be shown once. This list was built around the results that the source calls inconclusive (neither active nor inactive); the mix of calls is not that of the screen. Where the call is inconclusive, the potency comes from a doubtful curve fit. Calls of active or inactive are those of the source. Calls come from the whole dose curve; as a rule, active = well fitted inhibition curve with a large enough effect; inconclusive = small, poorly fitted or top-dose-only effect; inactive = flat fitted curve, though single readings scatter.

system: HaCat; experiment: Cytotoxic Profiling of Annotated Libraries Using Quantitative High-Throughput Screening (AID 1296008); conditions: Five cell lines viability, CellTiter-Glo ATP luminescence, 48-72 h; max response: stronger effect = lower value
Outline: (§1)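 Cytotoxicity was measured as CellTiter-Glo ATP luminescence, read after 10 min at room temperature. Compound treatment of the cells lasted 48 or 72 hr at 37 degrees Celsius in a qHTS format.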
% is set by controls: 0 for no effect and ±100 for the full control effect; potency is the fitted concentration of half-maximal effect; tags give direction and shape of the fitted curve.
Note: nearly all actives have a fitted effect of over 60% in size.

Compound | Potency | max response | outcome
Cc1nc(NC(=O)N2CCC[C@@H]2C(N)=O)sc1-c1csc(C(C)(C)C)n1 | active: 1.87 µM |  | 
CCN[C@H]1C[C@H](C)S(=O)(=O)c2sc(S(N)(=O)=O)cc21 |  | inactive: -6.44% | inactive
CCN1CCN(CC(=O)Nc2ccc(-c3cccc4c(=O)cc(N5CCOCC5)oc34)c3sc4ccccc4c23)CC1 | active: 0.935 µM |  | 
NC(CS)C(=O)O (centres undefined) |  |  | inactive
CC(C(C)N1CC(=O)NC(=O)C1)N1CC(=O)NC(=O)C1 (centres undefined) | inconclusive: 3.32 µM [inhibitor, full curve] |  | 
CN(C)c1ccc(C(=C2C=CC(=[N+](C)C)C=C2)c2ccc(N(C)C)cc2)cc1 | active: 1.06 µM and active: 935 nM |  | 
Nc1[nH]nc2nnc(-c3c(-c4ccccc4)nn4ccccc34)cc12 | inconclusive: 8.2 µM [inhibitor, partial curve, poor fit] |  | 
O=C(Nc1ccc(Cl)cc1)Nc1ccc(Cl)c(Cl)c1 | inconclusive: 33.5 µM [inhibitor, single point] |  | 
O[C@@H](c1cc(C(F)(F)F)nc2c(C(F)(F)F)cccc12)[C@H]1CCCCN1 | inconclusive: 23.7 µM [inhibitor, single point] |  | 
CCCCCN=C(N)N/N=C/c1c[nH]c2ccc(OC)cc12 | inconclusive: 23.7 µM [inhibitor, partial curve, poor fit] |  | 
O=[N+]([O-])c1ccc(O)c2ncccc12 | inconclusive: 33.5 µM [inhibitor, single point] |  | 
O=c1c(-c2ccccc2)c1-c1ccccc1 | inconclusive: 29.9 µM [inhibitor, single point] |  | 
COc1cc2nc(-c3cc(F)ccc3O)nc(N[C@@H]3CNC[C@@H]3C(C)(C)O)c2cc1OC | active: 26.4 µM |  | 
CCOC(=O)C1=C(C)NC2=C(C(=O)CC(C)(C)C2)C1c1ccc(-c2ccccc2)cc1 (centres undefined) | inconclusive: 11.8 µM [inhibitor, partial curve] and active: 7.31 µM |  | 
CC[C@@H]1C(=O)N(C)c2cnc(Nc3ccc(C(=O)NC4CCN(C)CC4)cc3OC)nc2N1C1CCCC1 | active: 0.0332 µM |  | 
CCC(C=C[C@@H]1OC(=O)C=C[C@H]1C)=C[C@H](C)CC=CC(C)=C[C@@H](C)C(=O)[C@@H](C)[C@H](O)[C@@H](C)CC(C)=CC(=O)O | active: 0.11 µM |  | 

system: KB-3-1; experiment: as above; conditions: Five cell lines viability, CellTiter-Glo ATP luminescence, 48-72 h; max response: stronger effect = lower value
Outline: as §1

Compound | Potency
CN(C)c1ccc(C(=C2C=CC(=[N+](C)C)C=C2)c2ccc(N(C)C)cc2)cc1 | active: 7.31 µM and active: 93.5 nM
O=C(Nc1ccc(Cl)cc1)Nc1ccc(Cl)c(Cl)c1 | inconclusive: 29.1 µM [inhibitor, single point]
O=[N+]([O-])c1ccc(O)c2ncccc12 | inconclusive: 4.11 µM [inhibitor, partial curve, poor fit]
O=c1c(-c2ccccc2)c1-c1ccccc1 | inconclusive: 29.1 µM [inhibitor, single point]
COc1cc2nc(-c3cc(F)ccc3O)nc(N[C@@H]3CNC[C@@H]3C(C)(C)O)c2cc1OC | active: 16.6 µM
CCOC(=O)C1=C(C)NC2=C(C(=O)CC(C)(C)C2)C1c1ccc(-c2ccccc2)cc1 (centres undefined) | inconclusive: 29.1 µM [inhibitor, single point]
CC[C@@H]1C(=O)N(C)c2cnc(Nc3ccc(C(=O)NC4CCN(C)CC4)cc3OC)nc2N1C1CCCC1 | active: 0.0083 µM

system: NIH3T3; experiment: as above; conditions: Five cell lines viability, CellTiter-Glo ATP luminescence, 48-72 h; max response: stronger effect = lower value
Outline: as §1

Compound | Potency
Cc1nc(NC(=O)N2CCC[C@@H]2C(N)=O)sc1-c1csc(C(C)(C)C)n1 | active: 4.69 µM
CC(C(C)N1CC(=O)NC(=O)C1)N1CC(=O)NC(=O)C1 (centres undefined) | inconclusive: 0.187 µM [inhibitor, full curve]
Nc1[nH]nc2nnc(-c3c(-c4ccccc4)nn4ccccc34)cc12 | inconclusive: 29.1 µM [inhibitor, single point]
O[C@@H](c1cc(C(F)(F)F)nc2c(C(F)(F)F)cccc12)[C@H]1CCCCN1 | inconclusive: 29.9 µM [inhibitor, single point]
CCCCCN=C(N)N/N=C/c1c[nH]c2ccc(OC)cc12 | inconclusive: 29.9 µM [inhibitor, single point]
O=[N+]([O-])c1ccc(O)c2ncccc12 | active: 15 µM
O=c1c(-c2ccccc2)c1-c1ccccc1 | inconclusive: 33.5 µM [inhibitor, single point]
CCC(C=C[C@@H]1OC(=O)C=C[C@H]1C)=C[C@H](C)CC=CC(C)=C[C@@H](C)C(=O)[C@@H](C)[C@H](O)[C@@H](C)CC(C)=CC(=O)O | active: 0.124 µM

system: MCC-13; experiment: qHTS assay to identify novel small-molecules to repurpose for Merkel cell carcinoma treatment (AID 1296009); conditions: MCC and control cell lines, CellTiter-Glo viability, 72 h; series mostly up to 46 µM; activity change, negative = cytotoxicity: at the top concentration
Outline: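 Cell viability measured by CellTiter-Glo following 72 hr compound treatment at 37 degree celsius, with NPC and MIPE libraries tested in 8- and 11-point concentration series.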

Compound | activity change, negative = cytotoxicity | Potency
Cc1nc(NC(=O)N2CCC[C@@H]2C(N)=O)sc1-c1csc(C(C)(C)C)n1 | inactive: -1.39% | 
CCN1CCN(CC(=O)Nc2ccc(-c3cccc4c(=O)cc(N5CCOCC5)oc34)c3sc4ccccc4c23)CC1 |  | inconclusive: 1.66 µM [inhibitor, full curve, poor fit]
O=C(Nc1ccc(Cl)cc1)Nc1ccc(Cl)c(Cl)c1 |  | inconclusive: 18.8 µM [inhibitor, single point]
CCCCCN=C(N)N/N=C/c1c[nH]c2ccc(OC)cc12 |  | inconclusive: 26.6 µM [inhibitor, single point]
O=[N+]([O-])c1ccc(O)c2ncccc12 |  | active: 11.9 µM
O=c1c(-c2ccccc2)c1-c1ccccc1 |  | inconclusive: 18.8 µM [inhibitor, single point]
COc1cc2nc(-c3cc(F)ccc3O)nc(N[C@@H]3CNC[C@@H]3C(C)(C)O)c2cc1OC |  | active: 20.9 µM
